# Results reported in US7517667B2, “Methods for promoting, inhibiting and detecting toxin entry into cells” (Boston Medical Center Corporation, priority 2003, dated 2009).
# Target: T1, β-COP (Homo sapiens, UniProt P53618)
# T1 construct: endogenous in cells; host or cells: Hut102/6TG cell lysate (β-COP); the bait GST-DT140-271 was made in E. coli BL-21(DE-3)
# T1 sequence (P53618 1-953): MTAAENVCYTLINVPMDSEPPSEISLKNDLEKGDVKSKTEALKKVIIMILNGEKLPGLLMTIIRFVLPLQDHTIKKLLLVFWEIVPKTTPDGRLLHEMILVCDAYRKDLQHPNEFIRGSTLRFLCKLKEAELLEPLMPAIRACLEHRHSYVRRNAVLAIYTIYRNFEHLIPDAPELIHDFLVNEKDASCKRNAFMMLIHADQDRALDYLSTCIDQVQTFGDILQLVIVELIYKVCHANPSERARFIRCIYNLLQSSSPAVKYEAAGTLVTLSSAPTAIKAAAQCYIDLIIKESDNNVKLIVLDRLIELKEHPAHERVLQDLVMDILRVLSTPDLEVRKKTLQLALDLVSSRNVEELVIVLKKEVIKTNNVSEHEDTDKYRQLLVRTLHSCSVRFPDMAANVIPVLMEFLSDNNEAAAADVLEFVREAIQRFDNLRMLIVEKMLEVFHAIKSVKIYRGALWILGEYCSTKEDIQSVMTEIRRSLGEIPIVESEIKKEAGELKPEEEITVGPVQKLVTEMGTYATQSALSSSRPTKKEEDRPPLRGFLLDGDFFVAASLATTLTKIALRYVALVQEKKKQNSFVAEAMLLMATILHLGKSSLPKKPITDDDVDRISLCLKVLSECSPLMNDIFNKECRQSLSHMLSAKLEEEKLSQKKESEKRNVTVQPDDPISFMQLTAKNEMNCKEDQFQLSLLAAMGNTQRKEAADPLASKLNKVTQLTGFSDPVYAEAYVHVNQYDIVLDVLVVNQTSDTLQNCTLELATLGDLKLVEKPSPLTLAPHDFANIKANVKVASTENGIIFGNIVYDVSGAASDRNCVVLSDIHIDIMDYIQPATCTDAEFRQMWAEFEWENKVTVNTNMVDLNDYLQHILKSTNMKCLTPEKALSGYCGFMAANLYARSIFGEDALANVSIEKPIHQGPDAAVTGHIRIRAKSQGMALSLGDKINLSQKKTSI
sequence,measurement,value
RDKTKTKIESLKEHGPIKNS [T1 peptide],"inhibition of the interaction between β-COP and GST-DT140-271 (pull down, anti-β-COP immunoblot)",inhibits this interaction in a dose dependent manner
"AENSDKHRIMQVFHRTLNQ [2,335 molecular weight peptide used as negative control in GST-DT140-271 pull down experiments]","inhibition of the interaction between β-COP and GST-DT140-271 (pull down, anti-β-COP immunoblot)",failed to block the pull down of β-COP
